Measurements as given in the supplement of paper PMC10126150.
Values marked as one replicate rest on one cluster of the flow cell; about a third of the high ones do not repeat.
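Further: ATP exposure 15 min at 22 °C before imaging.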

The sequences below were run on ATP (assay: switch fluorescence ratio, 500 uM ATP over buffer (Cy3 cluster intensity, sum of 5 cycles each) (fold (ratio)); higher = stronger signal-on switching upon ATP binding; sequences stand for … in TCGTCGGCAGCGTCAGATGTGTATAAGAGACAGTTTTTTTTTTTTTTTTTTTTTTTTT…TC). Conditions: aptamer strand: ATP DNA aptamer (quencher-CACCTGGGGGAGTATTGCGGAGGAAGG + anchor), 100 nM annealed; ATP concentration: 500 uM; one replicate.
Method in brief: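 Five buffer/ATP imaging cycles were run on Cy3-labelled switching-strand clusters on a modified Illumina MiSeq flow-cell, with NaOH stripping and re-annealing between cycles. In each cycle, clusters annealed to 100 nM quencher-labelled ATP aptamer were imaged in selection buffer, then after 15 min with 500 uM ATP at 22 °C. Per cluster, the fluorescence ratio is summed target-cycle over summed buffer-cycle Cy3 intensity, averaged per switch-domain sequence. Only clusters within 100-1000 RFU were kept.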
In the case of CGTTTGCC, the switch fluorescence ratio is reported as 1.
In the case of CGTTTTGAAG, the switch fluorescence ratio is reported as 0.992.
CGTTTTTCAT was tested, and the switch fluorescence ratio was 0.973.
Work on CGTTTTTTAC yielded a switch fluorescence ratio of 1.07.
Work on CTAAAAAGTT yielded a switch fluorescence ratio of 1.02.
CTAAAACAAA showed a switch fluorescence ratio of 0.937.
CTAAAAGGGT showed a switch fluorescence ratio of 0.974.
CTAAACTGCA showed a switch fluorescence ratio of 1.03.
CTAAAGATGA was tested, and the switch fluorescence ratio was 0.978.
Sequence CTAACGGCGT has a switch fluorescence ratio of 1.13.
With CTAACTCCGG the switch fluorescence ratio was 1.56.
Sequence CTAACTTAAA has a switch fluorescence ratio of 1.01.
For CTAAGAAAAG, the switch fluorescence ratio was 1.04.
With CTAAGACGGC the switch fluorescence ratio was 0.993.
For CTAAGAGAAT, the switch fluorescence ratio was 0.969.
Work on CTAAGAGGCT yielded a switch fluorescence ratio of 1.02.
CTAAGAGTAG was tested, and the switch fluorescence ratio was 0.967.
For CTAAGATGGA, the switch fluorescence ratio was 0.987.
CTAAGATTGC showed a switch fluorescence ratio of 1.12.
Work on CTAAGCTCGG yielded a switch fluorescence ratio of 1.02.
CTAAGCTGCA showed a switch fluorescence ratio of 1.06.
CTAAGCTGCT gave a switch fluorescence ratio of 1.02.
For CTAAGGACGC, the switch fluorescence ratio was 1.05.
CTAAGGTCAG was tested, and the switch fluorescence ratio was 0.948.
For CTAATAGAAT, the switch fluorescence ratio was 0.961.
In the case of CTAATATAGC, the switch fluorescence ratio is reported as 1.02.
Work on CTAATGACGA yielded a switch fluorescence ratio of 1.04.
Work on CTAATGAGCC yielded a switch fluorescence ratio of 1.01.
CTAATGAGGA showed a switch fluorescence ratio of 0.977.
CTACAAACGG showed a switch fluorescence ratio of 1.37.
For CTACACCAAA, the switch fluorescence ratio was 1.02.
With CTACACCTGT the switch fluorescence ratio was 1.02.
In the case of CTACACTCGC, the switch fluorescence ratio is reported as 1.09.
Sequence CTACAGCATC has a switch fluorescence ratio of 2.51.
CTACAGTGTT gave a switch fluorescence ratio of 0.987.
In the case of CTACATAAGC, the switch fluorescence ratio is reported as 1.1.
Sequence CTACCCTCTC has a switch fluorescence ratio of 1.05.
Work on CTACCTGATA yielded a switch fluorescence ratio of 1.03.
CTACGATATG showed a switch fluorescence ratio of 1.1.
With CTACGCTGGC the switch fluorescence ratio was 1.54.
With CTACGGTCTG the switch fluorescence ratio was 1.
CTACGTAA was tested, and the switch fluorescence ratio was 3.55.
CTACGTAGCA showed a switch fluorescence ratio of 1.45.
CTACGTGTCG gave a switch fluorescence ratio of 1.04.
For CTACGTTTGA, the switch fluorescence ratio was 1.02.
Work on CTACTGGAGG yielded a switch fluorescence ratio of 1.02.
CTACTTGAGA was tested, and the switch fluorescence ratio was 1.01.
In the case of CTAGAAGATA, the switch fluorescence ratio is reported as 1.03.
CTAGAAGGGC showed a switch fluorescence ratio of 1.03.
Work on CTAGAGTATG yielded a switch fluorescence ratio of 0.983.
CTAGATCAGT was tested, and the switch fluorescence ratio was 0.978.
For CTAGATCTTT, the switch fluorescence ratio was 0.959.
Work on CTAGATTATT yielded a switch fluorescence ratio of 1.01.
With CTAGCACGGG the switch fluorescence ratio was 1.02.
CTAGCCCGTT showed a switch fluorescence ratio of 1.
For CTAGCGAGGA, the switch fluorescence ratio was 1.05.
CTAGCTAGA showed a switch fluorescence ratio of 1.03.
Work on CTAGGAAAA yielded a switch fluorescence ratio of 0.983.
CTAGGAATAT was tested, and the switch fluorescence ratio was 0.992.
With CTAGGACCAA the switch fluorescence ratio was 1.01.
Sequence CTAGGACG has a switch fluorescence ratio of 1.
With CTAGGACGGG the switch fluorescence ratio was 0.974.
For CTAGGGATCG, the switch fluorescence ratio was 1.02.
CTAGGTCTCA showed a switch fluorescence ratio of 0.987.
CTAGGTGCCA showed a switch fluorescence ratio of 1.08.
CTAGGTGGC was tested, and the switch fluorescence ratio was 1.13.
With CTAGTAACCT the switch fluorescence ratio was 2.
For CTAGTAATCT, the switch fluorescence ratio was 1.07.
CTAGTATTGT gave a switch fluorescence ratio of 0.995.
Work on CTAGTGCGGG yielded a switch fluorescence ratio of 0.988.
CTAGTGCGTG was tested, and the switch fluorescence ratio was 0.96.
Sequence CTAGTGCTTT has a switch fluorescence ratio of 1.02.
For CTAGTGTTCC, the switch fluorescence ratio was 1.04.
For CTAGTTAAAG, the switch fluorescence ratio was 0.985.
Sequence CTAGTTATTA has a switch fluorescence ratio of 1.03.
CTAGTTCAAA showed a switch fluorescence ratio of 0.962.
Work on CTAGTTCTTT yielded a switch fluorescence ratio of 0.981.
CTAGTTTCGT was tested, and the switch fluorescence ratio was 1.04.
CTAGTTTTGT was tested, and the switch fluorescence ratio was 1.04.
CTATAGCCCT was tested, and the switch fluorescence ratio was 0.94.
CTATATAAGT was tested, and the switch fluorescence ratio was 1.01.
CTATATTCCA gave a switch fluorescence ratio of 1.03.
With CTATCAGTA the switch fluorescence ratio was 1.03.
Sequence CTATCCTTCG has a switch fluorescence ratio of 1.55.
With CTATGAAGGA the switch fluorescence ratio was 0.997.
In the case of CTATGATCAG, the switch fluorescence ratio is reported as 1.01.
Sequence CTATGTAGTA has a switch fluorescence ratio of 1.04.
CTATGTTCTA showed a switch fluorescence ratio of 1.01.
CTATTAGTGG gave a switch fluorescence ratio of 0.999.
In the case of CTATTCAAGT, the switch fluorescence ratio is reported as 1.11.
Sequence CTATTCTTTT has a switch fluorescence ratio of 1.04.
CTATTGCTAG showed a switch fluorescence ratio of 0.989.
CTATTGGGGA showed a switch fluorescence ratio of 0.975.
Work on CTATTTAAGT yielded a switch fluorescence ratio of 0.988.
For CTATTTAGGT, the switch fluorescence ratio was 0.98.
Sequence CTATTTGCAA has a switch fluorescence ratio of 1.41.
Work on CTATTTGTGC yielded a switch fluorescence ratio of 1.
CTCAAATGTT showed a switch fluorescence ratio of 1.01.
For CTCAAATTAT, the switch fluorescence ratio was 1.09.
CTCAAATTTT showed a switch fluorescence ratio of 1.01.
Work on CTCAACAATA yielded a switch fluorescence ratio of 3.55.
CTCAACGTGT gave a switch fluorescence ratio of 1.05.
CTCAAGTACA showed a switch fluorescence ratio of 1.3.
In the case of CTCACATCTA, the switch fluorescence ratio is reported as 1.02.
CTCACGGTTG was tested, and the switch fluorescence ratio was 0.971.
With CTCACGTTTG the switch fluorescence ratio was 1.05.
In the case of CTCACTATTG, the switch fluorescence ratio is reported as 0.988.
CTCACTTATC gave a switch fluorescence ratio of 1.02.
CTCAGAAGAG gave a switch fluorescence ratio of 1.04.
With CTCAGAGCTG the switch fluorescence ratio was 0.972.
Work on CTCAGATAGA yielded a switch fluorescence ratio of 1.06.
Work on CTCAGATGTA yielded a switch fluorescence ratio of 1.03.
With CTCAGCCAAT the switch fluorescence ratio was 2.47.
For CTCAGCGACG, the switch fluorescence ratio was 1.13.
CTCAGGCCGT was tested, and the switch fluorescence ratio was 1.01.
Work on CTCAGTAACA yielded a switch fluorescence ratio of 1.15.
In the case of CTCAGTTGAT, the switch fluorescence ratio is reported as 1.06.
With CTCATACGCC the switch fluorescence ratio was 1.58.
CTCATGTGGG gave a switch fluorescence ratio of 0.965.
CTCATTAGCG showed a switch fluorescence ratio of 1.01.
CTCATTTTGC gave a switch fluorescence ratio of 0.996.
CTCCAAACAT gave a switch fluorescence ratio of 1.3.
CTCCAAGGTA showed a switch fluorescence ratio of 1.56.
CTCCAATTAT showed a switch fluorescence ratio of 1.21.
CTCCACTGCG was tested, and the switch fluorescence ratio was 1.13.
CTCCAGGGAC was tested, and the switch fluorescence ratio was 2.65.
CTCCAGTAA gave a switch fluorescence ratio of 4.98.
CTCCATACAC was tested, and the switch fluorescence ratio was 1.99.
With CTCCGAGACG the switch fluorescence ratio was 1.28.
For CTCCGAGTAA, the switch fluorescence ratio was 2.91.
For CTCCGGAGAT, the switch fluorescence ratio was 1.04.
With CTCCTAGAGG the switch fluorescence ratio was 1.02.
With CTCCTGAGAC the switch fluorescence ratio was 2.15.
With CTCGAACTAG the switch fluorescence ratio was 1.03.
CTCGATAAAG showed a switch fluorescence ratio of 0.981.
For CTCGATCAGG, the switch fluorescence ratio was 1.2.
CTCGATTACC showed a switch fluorescence ratio of 1.01.
For CTCGATTGCG, the switch fluorescence ratio was 0.987.
For CTCGATTGGC, the switch fluorescence ratio was 0.991.
CTCGATTTGA gave a switch fluorescence ratio of 0.985.
CTCGCAGGAG was tested, and the switch fluorescence ratio was 1.56.
Work on CTCGCGTATA yielded a switch fluorescence ratio of 1.35.
Work on CTCGCGTGTC yielded a switch fluorescence ratio of 1.03.
CTCGCTACCC was tested, and the switch fluorescence ratio was 1.49.
With CTCGCTGGGC the switch fluorescence ratio was 1.43.
CTCGCTGGTG showed a switch fluorescence ratio of 1.27.
CTCGGAGGGT showed a switch fluorescence ratio of 1.01.
In the case of CTCGGCATCC, the switch fluorescence ratio is reported as 4.09.
For CTCGGCCAAC, the switch fluorescence ratio was 4.56.
CTCGGCCTTC was tested, and the switch fluorescence ratio was 1.41.
CTCGGCTACG showed a switch fluorescence ratio of 1.08.
In the case of CTCGGGAGAG, the switch fluorescence ratio is reported as 1.01.
With CTCGGGCTTG the switch fluorescence ratio was 0.958.
